# Measured values: the supplement of paper PMC8728848
# The list shows a part of the results.
# Columns and labels:
# Assay in all cases: glycan array binding signal (z-score within array); higher = stronger binding
# Settings in all cases: glycan notation: IUPAC condensed, linker removed
# Fuc(a1-2)Gal = molecular target: Fuc(a1-2)Gal
# In short: (§1)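 Glycan array data were curated from 3228 arrays in the Consortium for Functional Glycomics database and kept only where the protein sequence was available. Glycan names were converted to IUPAC-condensed notation, and columns mapping to the same glycan were averaged. The binding signal is a within-array Z-score, averaged across arrays of the same protein sequence at different concentrations or buffers and across linkers. Negative Z-scores can be read as non-binding.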
# Fuc(a1-2)Gal(b1-3)GalNAc = molecular target: Fuc(a1-2)Gal(b1-3)GalNAc
# In short: as §1
# [1] = molecular target: Fuc(a1-2)Gal(b1-3)GalNAc(b1-3)Gal
# In short: as §1
# [2] = molecular target: Fuc(a1-2)Gal(b1-3)GalNAc(b1-3)Gal(a1-4)Gal(b1-4)Glc
# In short: as §1
# [3] = molecular target: Fuc(a1-2)Gal(b1-3)GalNAc(b1-4)[Neu5Ac(a2-3)]Gal(b1-4)Glc
# In short: as §1
# Fuc(a1-2)Gal(b1-3)GlcNAc = molecular target: Fuc(a1-2)Gal(b1-3)GlcNAc
# In short: as §1
# [4] = molecular target: Fuc(a1-2)Gal(b1-3)GlcNAc(b1-3)Gal(b1-4)Glc
# In short: as §1
# [5] = molecular target: Fuc(a1-2)Gal(b1-3)[Fuc(a1-4)]GlcNAc
# In short: as §1
# Fuc(a1-2)Gal(b1-4)Glc = molecular target: Fuc(a1-2)Gal(b1-4)Glc
# In short: as §1
# Fuc(a1-2)Gal(b1-4)Glc6S = molecular target: Fuc(a1-2)Gal(b1-4)Glc6S
# In short: as §1
# Fuc(a1-2)Gal(b1-4)GlcNAc = molecular target: Fuc(a1-2)Gal(b1-4)GlcNAc
# In short: as §1
# [6] = molecular target: Fuc(a1-2)Gal(b1-4)GlcNAc(b1-3)Gal(b1-4)GlcNAc
# In short: as §1
# [7] = molecular target: Fuc(a1-2)Gal(b1-4)GlcNAc(b1-3)Gal(b1-4)GlcNAc(b1-3)Gal(b1-4)GlcNAc
# In short: as §1
# [8] = molecular target: Fuc(a1-2)Gal(b1-4)GlcNAc6S
# In short: as §1
# [9] = molecular target: Fuc(a1-2)Gal(b1-4)[Fuc(a1-3)]GlcNAc
# In short: as §1
# [10] = molecular target: Fuc(a1-2)Gal(b1-4)[Fuc(a1-3)]GlcNAc(b1-3)Gal(b1-4)[Fuc(a1-3)]GlcNAc
# In short: as §1
# [11] = molecular target: Fuc(a1-2)Gal(b1-4)[Fuc(a1-3)]GlcNAc(b1-3)Gal(b1-4)[Fuc(a1-3)]GlcNAc(b1-3)Gal(b1-4)[Fuc(a1-3)]GlcNAc
# In short: as §1
# Fuc(a1-2)Gal6S(b1-4)Glc = molecular target: Fuc(a1-2)Gal6S(b1-4)Glc
# In short: as §1
# [12] = molecular target: Fuc(a1-2)Gal6S(b1-4)Glc6S
# In short: as §1
# [13] = molecular target: Fuc(a1-2)Gal6S(b1-4)GlcNAc
# In short: as §1
# Fuc(a1-2)GlcNAc = molecular target: Fuc(a1-2)GlcNAc
# In short: as §1
# Fuc(a1-2)[Gal(a1-3)]Gal = molecular target: Fuc(a1-2)[Gal(a1-3)]Gal
# In short: as §1
# [14] = molecular target: Fuc(a1-2)[Gal(a1-3)]Gal(b1-3)GlcNAc
# In short: as §1
# [15] = molecular target: Fuc(a1-2)[Gal(a1-3)]Gal(b1-4)Glc
# In short: as §1
# [16] = molecular target: Fuc(a1-2)[Gal(a1-3)]Gal(b1-4)GlcNAc
# In short: as §1
# [17] = molecular target: Fuc(a1-2)[Gal(a1-3)]Gal(b1-4)[Fuc(a1-3)]GlcNAc
# In short: as §1
# [18] = molecular target: Fuc(a1-2)[Gal(a1-4)]Gal(b1-4)GlcNAc
# In short: as §1
# [19] = molecular target: Fuc(a1-2)[GalNAc(a1-3)]Gal
# In short: as §1
# [20] = molecular target: Fuc(a1-2)[GalNAc(a1-3)]Gal(b1-3)GlcNAc
# In short: as §1
# [21] = molecular target: Fuc(a1-2)[GalNAc(a1-3)]Gal(b1-4)Glc
# In short: as §1
# [22] = molecular target: Fuc(a1-2)[GalNAc(a1-3)]Gal(b1-4)GlcNAc
# In short: as §1
# [23] = molecular target: Fuc(a1-2)[GalNAc(a1-3)]Gal(b1-4)[Fuc(a1-3)]GlcNAc
# In short: as §1
# [24] = molecular target: Fuc(a1-2)[GalNAc(a1-4)]Gal(b1-4)GlcNAc
# In short: as §1
# [25] = molecular target: Fuc(a1-2)[GalNAc(b1-3)]Gal
# In short: as §1
# Fuc(a1-3)GlcNAc = molecular target: Fuc(a1-3)GlcNAc
# In short: as §1
# [26] = molecular target: Fuc(a1-3)[Gal(b1-4)]Glc6S
# In short: as §1
# [27] = molecular target: Fuc(a1-3)[Gal(b1-4)]GlcNAc
# In short: as §1
# [28] = molecular target: Fuc(a1-3)[Gal(b1-4)]GlcNAc(b1-2)Man(a1-3)[Fuc(a1-3)[Gal(b1-4)]GlcNAc(b1-2)Man(a1-6)]Man(b1-4)GlcNAc(b1-4)GlcNAc
# In short: as §1
# [29] = molecular target: Fuc(a1-3)[Gal(b1-4)]GlcNAc(b1-2)Man(a1-6)[Gal(b1-4)GlcNAc(b1-2)Man(a1-3)]Man(b1-4)GlcNAc(b1-4)GlcNAc
# In short: as §1
# [30] = molecular target: Fuc(a1-3)[Gal(b1-4)]GlcNAc(b1-3)Gal(b1-3)[Fuc(a1-4)]GlcNAc
# In short: as §1
# [31] = molecular target: Fuc(a1-3)[Gal(b1-4)]GlcNAc(b1-3)Gal(b1-4)[Fuc(a1-3)]GlcNAc
# In short: as §1
# [32] = molecular target: Fuc(a1-3)[Gal(b1-4)]GlcNAc(b1-3)Gal(b1-4)[Fuc(a1-3)]GlcNAc(b1-3)Gal(b1-4)[Fuc(a1-3)]GlcNAc
# In short: as §1
# [33] = molecular target: Fuc(a1-3)[Gal(b1-4)]GlcNAc(b1-4)Gal(b1-4)[Fuc(a1-3)]GlcNAc
# In short: as §1
# [34] = molecular target: Fuc(a1-3)[Gal(b1-4)]GlcNAc(b1-4)Gal(b1-4)[Fuc(a1-3)]GlcNAc(b1-4)Gal(b1-4)[Fuc(a1-3)]GlcNAc
# In short: as §1
# [35] = molecular target: Fuc(a1-3)[Gal(b1-4)]GlcNAc6S
# In short: as §1
# [36] = molecular target: Fuc(a1-3)[Gal3S(b1-4)]Glc6S
# In short: as §1
# [37] = molecular target: Fuc(a1-3)[Gal3S(b1-4)]GlcNAc
# In short: as §1
# [38] = molecular target: Fuc(a1-3)[Gal3S(b1-4)]GlcNAc6S
# In short: as §1
# [39] = molecular target: Fuc(a1-3)[GalNAc(b1-4)]GlcNAc
# In short: as §1
# Fuc(a1-4)GlcNAc = molecular target: Fuc(a1-4)GlcNAc
# In short: as §1
# Fuc(b1-3)GlcNAc = molecular target: Fuc(b1-3)GlcNAc
# In short: as §1
# Gal(a1-2)Gal = molecular target: Gal(a1-2)Gal
# In short: as §1
# Gal(a1-3)Gal = molecular target: Gal(a1-3)Gal
# In short: as §1
# Gal(a1-3)Gal(b1-3)GlcNAc = molecular target: Gal(a1-3)Gal(b1-3)GlcNAc
# In short: as §1
# Gal(a1-3)Gal(b1-4)Glc = molecular target: Gal(a1-3)Gal(b1-4)Glc
# In short: as §1
# Gal(a1-3)Gal(b1-4)GlcNAc = molecular target: Gal(a1-3)Gal(b1-4)GlcNAc
# In short: as §1
# [40] = molecular target: Gal(a1-3)Gal(b1-4)[Fuc(a1-3)]GlcNAc
# In short: as §1
# Gal(a1-3)GalNAc = molecular target: Gal(a1-3)GalNAc
# In short: as §1
# [41] = molecular target: Gal(a1-3)[Gal(a1-4)]Gal(b1-4)GlcNAc
# In short: as §1
# Gal(a1-4)Gal(b1-4)Glc = molecular target: Gal(a1-4)Gal(b1-4)Glc
# In short: as §1
binder,measurement,setting,value
CD83 (Homo sapiens) (protein) MSRGLQLLLLSCAYSLAPATPEVKVACSEDVDLPCTAPWDPQVPYTVSWVKLLEGGEERMETPQEDHLRGQHYHQKGQNGSFDAPNERPYSLKIRNTTSCNSGTYRCTLQDPDGQRNLSGKVILRVTGCPAQRKEETFKKYRAETSEQKLISEEDLSRGSDDDDKAEPRGP,glycan array binding signal (z-score),Fuc(a1-2)Gal,-0.332
same,glycan array binding signal (z-score),Fuc(a1-2)Gal(b1-3)GalNAc,-0.357
same,glycan array binding signal (z-score),[1],-0.068
same,glycan array binding signal (z-score),[2],-0.048
same,glycan array binding signal (z-score),[3],-0.21
same,glycan array binding signal (z-score),Fuc(a1-2)Gal(b1-3)GlcNAc,-0.157
same,glycan array binding signal (z-score),[4],-0.152
same,glycan array binding signal (z-score),[5],-0.388
same,glycan array binding signal (z-score),Fuc(a1-2)Gal(b1-4)Glc,-0.222
same,glycan array binding signal (z-score),Fuc(a1-2)Gal(b1-4)Glc6S,-0.164
same,glycan array binding signal (z-score),Fuc(a1-2)Gal(b1-4)GlcNAc,-0.181
same,glycan array binding signal (z-score),[6],-0.172
same,glycan array binding signal (z-score),[7],-0.22
same,glycan array binding signal (z-score),[8],-0.171
same,glycan array binding signal (z-score),[9],-0.286
same,glycan array binding signal (z-score),[10],-0.099
same,glycan array binding signal (z-score),[11],-0.079
same,glycan array binding signal (z-score),Fuc(a1-2)Gal6S(b1-4)Glc,0.356
same,glycan array binding signal (z-score),[12],-0.062
same,glycan array binding signal (z-score),[13],-0.208
same,glycan array binding signal (z-score),Fuc(a1-2)GlcNAc,-0.045
same,glycan array binding signal (z-score),Fuc(a1-2)[Gal(a1-3)]Gal,-0.214
same,glycan array binding signal (z-score),[14],-0.151
same,glycan array binding signal (z-score),[15],-0.046
same,glycan array binding signal (z-score),[16],-0.407
same,glycan array binding signal (z-score),[17],1.45
same,glycan array binding signal (z-score),[18],-0.454
same,glycan array binding signal (z-score),[19],-0.208
same,glycan array binding signal (z-score),[20],-0.222
same,glycan array binding signal (z-score),[21],-0.276
same,glycan array binding signal (z-score),[22],-0.25
same,glycan array binding signal (z-score),[23],0.518
same,glycan array binding signal (z-score),[24],-0.343
same,glycan array binding signal (z-score),[25],-0.195
same,glycan array binding signal (z-score),Fuc(a1-3)GlcNAc,-0.343
same,glycan array binding signal (z-score),[26],-0.101
same,glycan array binding signal (z-score),[27],-0.318
same,glycan array binding signal (z-score),[28],-0.311
same,glycan array binding signal (z-score),[29],-0.075
same,glycan array binding signal (z-score),[30],0.334
same,glycan array binding signal (z-score),[31],1.98
same,glycan array binding signal (z-score),[32],-0.095
same,glycan array binding signal (z-score),[33],-0.138
same,glycan array binding signal (z-score),[34],-0.087
same,glycan array binding signal (z-score),[35],-0.026
same,glycan array binding signal (z-score),[36],0.154
same,glycan array binding signal (z-score),[37],1.06
same,glycan array binding signal (z-score),[38],-0.148
same,glycan array binding signal (z-score),[39],-0.097
same,glycan array binding signal (z-score),Fuc(a1-4)GlcNAc,-0.109
same,glycan array binding signal (z-score),Fuc(b1-3)GlcNAc,-0.25
same,glycan array binding signal (z-score),Gal(a1-2)Gal,-0.371
same,glycan array binding signal (z-score),Gal(a1-3)Gal,-0.245
same,glycan array binding signal (z-score),Gal(a1-3)Gal(b1-3)GlcNAc,-0.137
same,glycan array binding signal (z-score),Gal(a1-3)Gal(b1-4)Glc,-0.193
same,glycan array binding signal (z-score),Gal(a1-3)Gal(b1-4)GlcNAc,-0.153
same,glycan array binding signal (z-score),[40],-0.367
same,glycan array binding signal (z-score),Gal(a1-3)GalNAc,0.049
same,glycan array binding signal (z-score),[41],-0.454
same,glycan array binding signal (z-score),Gal(a1-4)Gal(b1-4)Glc,-0.136
